From CN115340605A (MABWELL SHANGHAI BIOSCIENCE CO LTD, dated 2022)

Columns and labels:
表达在细胞表面的人PD-L1 [1] = biological target: T1, 表达在细胞表面的人PD-L1 (human, UniProt Q9NZQ7); assay: cell-based or functional assay
表达在细胞表面的人PD-L1 [2] = biological target: T1, 表达在细胞表面的人PD-L1; assay: flow cytometry on CHO-PD-L1-CD3L cells, FITC anti-human Fc, MFI
鼠PD-L1重组蛋白 = biological target: T2, 鼠PD-L1重组蛋白 (鼠 (murine), UniProt Q9EP73 part only, limits assumed); assay: BLI (Octet QKe), antibody captured on AHC probe, antigen in solution
鼠PD-L1重组蛋白, sequence (Q9EP73 19-238 limits assumed): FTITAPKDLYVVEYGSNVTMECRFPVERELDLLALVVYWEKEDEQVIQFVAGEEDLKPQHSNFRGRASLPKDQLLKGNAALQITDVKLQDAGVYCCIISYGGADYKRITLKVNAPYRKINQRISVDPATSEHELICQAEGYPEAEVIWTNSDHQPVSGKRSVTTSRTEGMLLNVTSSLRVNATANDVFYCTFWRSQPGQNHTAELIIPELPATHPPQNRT
T2 construct: also called 重组鼠PD-L1

T1 sequence (Q9NZQ7 19-290): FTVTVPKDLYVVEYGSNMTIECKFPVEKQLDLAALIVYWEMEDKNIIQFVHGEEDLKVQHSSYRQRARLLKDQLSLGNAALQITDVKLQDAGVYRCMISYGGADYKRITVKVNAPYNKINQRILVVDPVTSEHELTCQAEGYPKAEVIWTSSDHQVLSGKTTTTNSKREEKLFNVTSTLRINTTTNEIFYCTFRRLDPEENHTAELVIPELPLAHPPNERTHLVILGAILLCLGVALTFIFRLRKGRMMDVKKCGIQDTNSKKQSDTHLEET

B1: KN035-hFc融合蛋白 (Fc fusion)
chain: QVQLVESGGGLVQPGGSLRLSCAASGKMSSRRCMAWFRQAPGKERERVAKLLTTSGSTYLADSVKGRFTISRDNSKNTVYLQMNSLRAEDTAVYYCAADSFEDPTCTLVTSSGAFQYWGQGTLVTVSSAS[gap - human IgG1 Fc with changes]
notes: Control antibody, built in the same form as chB6 (variable region + hFc); also called Envafolimab
EC50, 报告基因法 (Jurkat-PD1-NFAT细胞和CHO-PD-L1-CD3L细胞, RLU) (表达在细胞表面的人PD-L1 [1]): 3.31 nM
EC50 (表达在细胞表面的人PD-L1 [2]): 1.27 nM
binding result (鼠PD-L1重组蛋白): no binding (tested: 60nM)

B2: 人-骆驼嵌合单域抗体融合蛋白 (VHH-B6-human-Fc chimeric antibody) (Fc fusion)
chain: QVQLQESGGDSVQAGGSLRLSCIASEYIGDRYCAGWFRQAPGKEREGVAMIDRHGIVRYKDSVEGRFTISRNHAGNTLFLEMNSLKAEDTAMYYCAAERDPTNVTPCRPEYPDMDYWGKGTQVTVSSAS[gap - human IgG1 Fc with changes]
notes: also called chB6
EC50 (表达在细胞表面的人PD-L1 [2]): 0.87 nM
binding result (鼠PD-L1重组蛋白): no binding (tested: 60nM)
